# Measured values: the supplement of paper PMC8728848
# Some of the results follow.
# B1: SSL (Salmo salar) (protein)
# chain: TGAKGAEEGVVPAETRNQCPTGWFQFGSRCFMFVETARSWPLAERHCVSLGANLASVHSSADDQFLQAIAGCKTGAFSTTWIGGFDAVQDRLWFWSDGSEFDYQNWAKGEPNNSGGREPCIVINWGDEYRWNDIKCGNSFPSVCSKRICEIQKN
# Experiments:
# Assay in all cases: glycan array binding signal (z-score within array); higher = stronger binding
# Conditions in all cases: glycan notation: IUPAC condensed, linker removed
# [1] = target: GlcNAc(a1-4)Gal(b1-4)GalNAc
# Outline: (§1)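 From the Consortium for Functional Glycomics database, 3228 arrays were curated, keeping only those whose protein sequence was available. Binding is given as a within-array Z-score averaged across arrays sharing a protein sequence and across linkers. Negative Z-scores can be read as non-binding.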
# [2] = target: GlcNAc(a1-4)Gal(b1-4)GlcNAc
# Outline: as §1
# [3] = target: GlcNAc(a1-4)Gal(b1-4)GlcNAc(b1-3)Gal(b1-4)Glc
# Outline: as §1
# [4] = target: GlcNAc(a1-4)Gal(b1-4)GlcNAc(b1-3)Gal(b1-4)GlcNAc
# Outline: as §1
# [5] = target: GlcNAc(a1-4)Gal(b1-4)GlcNAc(b1-3)Gal(b1-4)GlcNAc(b1-3)Gal(b1-4)GlcNAc
# Outline: as §1
# [6] = target: GlcNAc(a1-4)Gal(b1-4)GlcNAc(b1-3)Gal(b1-4)[Fuc(a1-3)]GlcNAc(b1-3)Gal(b1-4)[Fuc(a1-3)]GlcNAc
# Outline: as §1
# [7] = target: GlcNAc(a1-6)Gal(b1-4)GlcNAc
# Outline: as §1
# [8] = target: GlcNAc(b1-2)Gal(b1-3)GalNAc
# Outline: as §1
# [9] = target: GlcNAc(b1-2)Man(a1-3)[GlcNAc(b1-2)Man(a1-6)]Man(b1-4)GlcNAc(b1-4)GlcNAc
# Outline: as §1
# [10] = target: GlcNAc(b1-2)Man(a1-3)[GlcNAc(b1-2)Man(a1-6)]Man(b1-4)GlcNAc(b1-4)[Fuc(a1-6)]GlcNAc
# Outline: as §1
# [11] = target: GlcNAc(b1-2)[GlcNAc(b1-4)]Man(a1-3)[GlcNAc(b1-2)Man(a1-6)]Man(b1-4)GlcNAc(b1-4)GlcNAc
# Outline: as §1
# GlcNAc(b1-3)Gal = target: GlcNAc(b1-3)Gal
# Outline: as §1
# [12] = target: GlcNAc(b1-3)Gal(b1-3)GalNAc
# Outline: as §1
# GlcNAc(b1-3)Gal(b1-4)Glc = target: GlcNAc(b1-3)Gal(b1-4)Glc
# Outline: as §1
# [13] = target: GlcNAc(b1-3)Gal(b1-4)GlcNAc
# Outline: as §1
# [14] = target: GlcNAc(b1-3)Gal(b1-4)GlcNAc(b1-3)Gal(b1-4)GlcNAc
# Outline: as §1
# GlcNAc(b1-3)GalNAc = target: GlcNAc(b1-3)GalNAc
# Outline: as §1
# GlcNAc(b1-3)Man = target: GlcNAc(b1-3)Man
# Outline: as §1
# [15] = target: GlcNAc(b1-3)[GlcNAc(b1-4)][GlcNAc(b1-6)]GlcNAc
# Outline: as §1
# [16] = target: GlcNAc(b1-3)[GlcNAc(b1-6)]Gal(b1-4)GlcNAc
# Outline: as §1
# [17] = target: GlcNAc(b1-3)[GlcNAc(b1-6)]GalNAc
# Outline: as §1
# [18] = target: GlcNAc(b1-4)Gal(b1-4)GlcNAc
# Outline: as §1
# GlcNAc(b1-4)GlcNAc = target: GlcNAc(b1-4)GlcNAc
# Outline: as §1
# [19] = target: GlcNAc(b1-4)GlcNAc(b1-4)GlcNAc
# Outline: as §1
# [20] = target: GlcNAc(b1-4)GlcNAc(b1-4)GlcNAc(b1-4)GlcNAc(b1-4)GlcNAc
# Outline: as §1
# [21] = target: GlcNAc(b1-4)GlcNAc(b1-4)GlcNAc(b1-4)GlcNAc(b1-4)GlcNAc(b1-4)GlcNAc
# Outline: as §1
# [22] = target: GlcNAc(b1-4)[GlcNAc(b1-6)]GalNAc
# Outline: as §1
# [23] = target: GlcNAc(b1-6)Gal(b1-4)GlcNAc
# Outline: as §1
# GlcNAc(b1-6)GalNAc = target: GlcNAc(b1-6)GalNAc
# Outline: as §1
# GlcNAc3Prop(b1-4)GlcNAc = target: GlcNAc3Prop(b1-4)GlcNAc
# Outline: as §1
# [24] = target: GlcNAc6S(b1-3)Gal(b1-4)GlcNAc
# Outline: as §1
# Kdn(a2-3)Gal(b1-3)GalNAc = target: Kdn(a2-3)Gal(b1-3)GalNAc
# Outline: as §1
# Kdn(a2-3)Gal(b1-3)GlcNAc = target: Kdn(a2-3)Gal(b1-3)GlcNAc
# Outline: as §1
# Kdn(a2-3)Gal(b1-4)Glc = target: Kdn(a2-3)Gal(b1-4)Glc
# Outline: as §1
# Kdn(a2-3)Gal(b1-4)GlcNAc = target: Kdn(a2-3)Gal(b1-4)GlcNAc
# Outline: as §1
# [25] = target: Kdn(a2-3)Gal(b1-4)[Fuc(a1-3)]GlcNAc
# Outline: as §1
# Kdn(a2-6)Gal(b1-4)GlcNAc = target: Kdn(a2-6)Gal(b1-4)GlcNAc
# Outline: as §1
# [26] = target: Man(a1-2)Man(a1-2)Man(a1-3)Man
# Outline: as §1
# [27] = target: Man(a1-2)Man(a1-2)Man(a1-6)[Man(a1-3)]Man
# Outline: as §1
# Man(a1-2)Man(a1-3)Man = target: Man(a1-2)Man(a1-3)Man
# Outline: as §1
# [28] = target: Man(a1-2)Man(a1-3)[Man(a1-2)Man(a1-6)]Man
# Outline: as §1
# [29] = target: Man(a1-2)Man(a1-3)[Man(a1-2)Man(a1-6)]Man(a1-6)[Man(a1-2)Man(a1-2)Man(a1-3)]Man
# Outline: as §1
# [30] = target: Man(a1-2)Man(a1-3)[Man(a1-2)Man(a1-6)]Man(a1-6)[Man(a1-2)Man(a1-2)Man(a1-3)]Man(b1-4)GlcNAc(b1-4)GlcNAc
# Outline: as §1
# [31] = target: Man(a1-2)Man(a1-3)[Man(a1-6)]Man(a1-6)[Man(a1-2)Man(a1-3)]Man(b1-4)GlcNAc(b1-4)GlcNAc
# Outline: as §1
# [32] = target: Man(a1-2)Man(a1-6)[Man(a1-3)]Man(a1-6)[Man(a1-2)Man(a1-2)Man(a1-3)]Man
# Outline: as §1
binder,measurement,setting,value
B1,glycan array binding signal (z-score),[1],-0.147
same,glycan array binding signal (z-score),[2],-0.033
same,glycan array binding signal (z-score),[3],0.85
same,glycan array binding signal (z-score),[4],1.65
same,glycan array binding signal (z-score),[5],0.978
same,glycan array binding signal (z-score),[6],0.023
same,glycan array binding signal (z-score),[7],-0.172
same,glycan array binding signal (z-score),[8],-0.165
same,glycan array binding signal (z-score),[9],3.12
same,glycan array binding signal (z-score),[10],-0.164
same,glycan array binding signal (z-score),[11],6.65
same,glycan array binding signal (z-score),GlcNAc(b1-3)Gal,-0.139
same,glycan array binding signal (z-score),[12],0.248
same,glycan array binding signal (z-score),GlcNAc(b1-3)Gal(b1-4)Glc,-0.112
same,glycan array binding signal (z-score),[13],-0.022
same,glycan array binding signal (z-score),[14],-0.189
same,glycan array binding signal (z-score),GlcNAc(b1-3)GalNAc,-0.142
same,glycan array binding signal (z-score),GlcNAc(b1-3)Man,-0.129
same,glycan array binding signal (z-score),[15],11.7
same,glycan array binding signal (z-score),[16],6.68
same,glycan array binding signal (z-score),[17],0.96
same,glycan array binding signal (z-score),[18],1.56
same,glycan array binding signal (z-score),GlcNAc(b1-4)GlcNAc,-0.148
same,glycan array binding signal (z-score),[19],-0.081
same,glycan array binding signal (z-score),[20],-0.081
same,glycan array binding signal (z-score),[21],-0.065
same,glycan array binding signal (z-score),[22],8.49
same,glycan array binding signal (z-score),[23],-0.164
same,glycan array binding signal (z-score),GlcNAc(b1-6)GalNAc,-0.158
same,glycan array binding signal (z-score),GlcNAc3Prop(b1-4)GlcNAc,-0.181
same,glycan array binding signal (z-score),[24],-0.171
same,glycan array binding signal (z-score),Kdn(a2-3)Gal(b1-3)GalNAc,-0.158
same,glycan array binding signal (z-score),Kdn(a2-3)Gal(b1-3)GlcNAc,-0.149
same,glycan array binding signal (z-score),Kdn(a2-3)Gal(b1-4)Glc,-0.172
same,glycan array binding signal (z-score),Kdn(a2-3)Gal(b1-4)GlcNAc,-0.153
same,glycan array binding signal (z-score),[25],-0.157
same,glycan array binding signal (z-score),Kdn(a2-6)Gal(b1-4)GlcNAc,-0.18
same,glycan array binding signal (z-score),[26],-0.129
same,glycan array binding signal (z-score),[27],-0.154
same,glycan array binding signal (z-score),Man(a1-2)Man(a1-3)Man,-0.143
same,glycan array binding signal (z-score),[28],-0.129
same,glycan array binding signal (z-score),[29],-0.099
same,glycan array binding signal (z-score),[30],-0.162
same,glycan array binding signal (z-score),[31],-0.162
same,glycan array binding signal (z-score),[32],-0.129
